± gives the standard deviation of the averaged measurements. The full ranking holds about 33,000 sequences; the median of “E-score (dimensionless, -0.5 to 0.5)” is about -0.046, and the highest 2% start at about 0.36. The list shows a part of the results.
system: T1, SpTbr T-box DNA-binding domain (GST fusion); assay: PBM E-score of 8-mer (E-score (dimensionless, -0.5 to 0.5)); Tbr is Tbrain of the sea star Patiria miniata (Pm) or the sea urchin Strongylocentrotus purpuratus (Sp); higher = stronger binding preference; most listed sequences are background and not binding sites; conditions: the construct has about 5 more residues each side
T1 sequence: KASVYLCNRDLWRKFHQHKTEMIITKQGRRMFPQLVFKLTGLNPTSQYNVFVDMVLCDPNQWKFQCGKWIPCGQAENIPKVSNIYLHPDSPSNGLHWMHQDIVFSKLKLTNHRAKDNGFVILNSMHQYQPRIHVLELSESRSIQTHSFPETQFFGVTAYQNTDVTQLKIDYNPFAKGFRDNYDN
Procedure: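 Universal protein-binding microarray (Agilent AMADID 016060, 60-bp probes with a 35-bp variable region) incubated with 200 nM GST-fused Strongylocentrotus purpuratus Tbr T-box DNA-binding domain (residues 362-554) in PBS pH 7.5. Scored for every ungapped 8-mer (given with its reverse complement) as E-score (range -0.5 to 0.5; >0.45 counts as bound) and Z-score of median probe intensity. Two replicate arrays (datasets 1 and 2).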
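Also: protein at 200 nM in PBS on universal double-stranded arrays.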

In order of falling “PBM E-score of 8-mer” value:
1. AGATCACA  0.342 ± 0.02
2. CGCGAGGC  0.339 ± 0.032
3. ATAACACG  0.303 ± 0.033
4. AGCACACT  0.28 ± 0.034
5. GGCGCGCC  0.237 ± 0.032
6. CTATAACA  0.226 ± 0.025
7. GTGTTTAA  0.211 ± 0.079
8. CATTTCAC  0.209 ± 0.045
9. GCCCTCAC  0.205 ± 0.042
10. CTAACGAA  0.162 ± 0.044
11. CCACTTAC  0.161 ± 0.0085
12. ATGCGAAT  0.129 ± 0.048
13. ACATGAAT  0.128 ± 0.076
14. CTGTTCGA  0.124 ± 0.0058
15. ACAACCCC  0.115 ± 0.0058
16. AAGCGGTC  0.11 ± 0.018
17. CGATAAGC  0.108 ± 0.074
18. CTGCCGTC  0.0984 ± 0.037
19. CTCCGCAC  0.0941 ± 0.033
20. AAGTGATT  0.0911 ± 0.026
21. CCAGTCAA  0.0495 ± 0.0022
22. CATGTGGC  0.0468 ± 0.12
23. CGTGGATA  0.0438 ± 0.075
24. CTAGCCGC  0.0427 ± 0.047
25. CCTTAGCC  0.0413 ± 0.016
26. AACGAGTA  0.031 ± 0.015
27. ACTACAAT  0.0271 ± 0.027
28. CTGCCAAA  0.0249 ± 0.15
29. ATTTCCCA  0.0156 ± 0.022
30. CCCCTCCA  0.0101 ± 0.067
31. AGACCAAG  0.0098 ± 0.00058
32. CAATTGTA  0.00751 ± 0.072
33. CTGTTGCC  0.00709 ± 0.025
34. AGATTCCC  0.0028 ± 0.016
35. AACTGCTC  0.00139 ± 0.031
36. CTTCGCTC  -0.00285 ± 0.036
37. AAGAAGGT  -0.00399 ± 0.0071
38. ATTGCAAG  -0.00583 ± 0.0034
39. AACGGATA  -0.00801 ± 0.023
40. GAAAATGA  -0.0154 ± 0.014
41. ACTCCGGA  -0.0213 ± 0.013
42. ACGATTAG  -0.0372 ± 0.04
43. GGTTAATA  -0.0399 ± 0.046
44. AGAAGGCC  -0.0423 ± 0.037
45. CCCGAAAG  -0.0424 ± 0.00067
46. TGGAGGAA  -0.056 ± 0.022
47. AGTCCACT  -0.0663 ± 0.0069
48. ACGGGCAC  -0.0683 ± 0.048
49. ATACGCGG  -0.0745 ± 0.021
50. GGGTGAAC  -0.0752 ± 0.084
51. GCGGTACA  -0.0858 ± 0.04
52. ATCAGATC  -0.0884 ± 0.036
53. AGAGATCC  -0.0897 ± 0.0046
54. GAAATCCA  -0.092 ± 0.023
55. CAGCTGGG  -0.0941 ± 0.13
56. AGATAGGG  -0.0962 ± 0.062
57. CGCTCTCC  -0.0984 ± 0.027
58. AATAATGA  -0.102 ± 0.0057
59. CGATTCTA  -0.108 ± 0.062
60. AAGAACGG  -0.11 ± 0.038
61. GATGGTAC  -0.12 ± 0.032
62. ACGTTCAG  -0.122 ± 0.029
63. CTACCGCC  -0.122 ± 0.028
64. GCAAAAGA  -0.133 ± 0.038
65. AGGCAGAA  -0.135 ± 0.014
66. ATCAAACC  -0.137 ± 0.011
67. AACCTTAT  -0.137 ± 0.027
68. AAGTCATC  -0.145 ± 0.029
69. AAGGCTAT  -0.146 ± 0.024
70. GAATGCAA  -0.152 ± 0.016
71. AGACTACC  -0.154 ± 0.059
72. ACCGGTAC  -0.1754 ± 0.0017
73. CCTGGGGC  -0.184 ± 0.006
74. AATAGATC  -0.185 ± 0.063
75. CATCTGCC  -0.186 ± 0.084
76. ACGATGGG  -0.196 ± 0.062
77. AAAAGTCC  -0.2028 ± 0.0019
78. ATTCCTCC  -0.207 ± 0.057
79. GACTTTTA  -0.207 ± 0.076
80. AGGGACTG  -0.214 ± 0.048
81. TCTAAAGA  -0.229 ± 0.019
82. ATAGCCCG  -0.238 ± 0.021
83. GCATAGCC  -0.241 ± 0.055
84. ATAGACCG  -0.285 ± 0.076
85. AGGCATCC  -0.354 ± 0.04
86. ATCCAGTC  -0.36 ± 0.015
